# Test results taken from PubChem BioAssay AID602310 (National Center for Advancing Translational Sciences (NCATS), 2012).
# Hit rate of the full screen: of about 410,000 compounds, about 310 (0.076%) were called active. This list was built around the results that the source calls inconclusive (neither active nor inactive); the mix of calls is not that of the screen. The call rests on the fitted dose curve; in most records, active means well fitted curve in the direction sought with a large enough effect; inconclusive means small, poorly fitted or top-dose-only effect; inactive means flat fitted curve, though single readings scatter. Potencies of inconclusive entries are doubtful fits and often do not repeat.
# Biological target: DNA dC->dU-editing enzyme APOBEC-3G (Homo sapiens) (UniProt Q9HC16)
# Assay: qHTS for Inhibitors of Vif-A3G Interactions: qHTS; further: nearly all actives have a fitted effect of over 60% in size;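 on activity, negative = active: hits raise eYFP signal because A3G escapes Vif-driven loss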
# Details: HeLa A3G-eYFP + Vif (tagged APOBEC3G with the HIV-1 protein that degrades it), YFP fluorescence, overnight; series mostly up to 46.1 µM; activity, negative = active: at the top concentration
# Summary of the method: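 HeLa cells stably expressing Vif and C-terminally eYFP-tagged A3G, seeded overnight at 37 deg C, then exposed to compound by pintool overnight at 37 deg C. Rise in yellow fluorescence (Ex 488/Em 500-530, Acumen) marks blocked Vif-driven A3G degradation.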
# On the % scale 0 is the no-effect control and ±100 the full control effect; potency means the concentration at half of the fitted maximal effect; tags describe the fitted curve by direction and shape.
# Chain of UniProt Q9HC16 (Q9HC16 whole entry, looked up): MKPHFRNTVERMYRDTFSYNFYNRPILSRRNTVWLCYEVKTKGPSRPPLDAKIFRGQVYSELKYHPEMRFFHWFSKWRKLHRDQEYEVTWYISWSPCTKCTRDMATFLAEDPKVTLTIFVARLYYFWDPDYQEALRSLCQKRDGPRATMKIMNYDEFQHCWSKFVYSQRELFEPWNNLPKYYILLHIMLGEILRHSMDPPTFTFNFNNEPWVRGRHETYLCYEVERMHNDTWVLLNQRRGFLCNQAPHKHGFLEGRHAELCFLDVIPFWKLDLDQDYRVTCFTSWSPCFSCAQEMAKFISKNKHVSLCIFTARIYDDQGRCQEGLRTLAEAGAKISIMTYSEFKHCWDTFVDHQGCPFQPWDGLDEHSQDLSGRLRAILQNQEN
SMILES,Potency,"activity, negative = active"
Cn1cccc1/C=C1\SC(=Nc2ccc(O)cc2)NC1=O,"inconclusive: 22.4 µM [inhibitor, partial curve, poor fit]",
Cc1ccc2cc(CN(Cc3ccco3)C(=O)c3cccs3)c(=O)[nH]c2c1,"inconclusive: 2.51 µM [inhibitor, full curve, poor fit]",
COC(=O)c1c(C)oc2ccc(N(C(=O)c3ccncc3)S(=O)(=O)c3ccc(C)cc3)cc12,"inconclusive: 0.562 µM [inhibitor, full curve, poor fit]",
COc1ccc(C(C)(O)c2nc(-c3csc4ccccc34)cs2)cc1 (stereo unspecified),"inconclusive: 3.16 µM [inhibitor, single point]",
COc1ccc(/C=C2/C(=O)OCc3cc(OC)c(OC)cc32)c(OC)c1,"inconclusive: 15.8 µM [inhibitor, single point]",
Cc1ccc(-c2csc(=Nc3ccc(F)cc3)n2Cc2ccc3c(c2)OCO3)cc1C,,inactive: 4.76%
CCC(=O)Oc1ccc(/C(CC)=C(\CC)c2ccc(OC(=O)CC)cc2)cc1,"inconclusive: 22.4 µM [inhibitor, single point]",
COc1ccc(-c2n[nH]c(C)c2-c2ccc(OC)c(OC)c2)c(O)c1,"inconclusive: 10 µM [inhibitor, partial curve, poor fit]",
COc1ccc2c(c1OC)C(=O)OC2C1c2c(cc3c(c2OC)OCO3)CCN1C (stereo unspecified),"inconclusive: 17.8 µM [inhibitor, single point]",
O=C(c1ccco1)N1CCN(C(=O)c2[nH]c(C(F)(F)F)nc2-c2ccccc2)CC1,"inconclusive: 22.4 µM [inhibitor, single point]",
CCOC(=O)c1sc2cc([N+](=O)[O-])cc(SCC(C)C)c2c1N,"inconclusive: 2.24 µM [inhibitor, full curve, poor fit]",
O=C(/C=C/c1ccccc1)CC(O)(c1ccccc1)C(F)(F)F (stereo unspecified),"inconclusive: 35.5 µM [inhibitor, single point]",
CCOc1cc(CNc2ccc3c(c2)OCCO3)cc(Br)c1OCC,"inconclusive: 1.78 µM [inhibitor, partial curve, poor fit]",
CCN(CC)c1ccc(/C=C2\C(=O)N(c3nnc(C)c(=O)[nH]3)N=C2C)cc1,"inconclusive: 35.5 µM [inhibitor, single point]",
O=[N+]([O-])/C=C/c1cn(Cc2ccc(Cl)cc2)c2ccccc12,"inconclusive: 11.2 µM [inhibitor, partial curve]",
COc1ccc(C(=O)C[n+]2cc(Br)cc3ccccc32)cc1,"inconclusive: 6.31 µM [inhibitor, partial curve]",
